# Test results published in PubChem BioAssay AID463173 (ICCB-Longwood Screening Facility, Harvard Medical School, 2010).
# Screen size: about 52,000 compounds; about 1,700 (3.3%) were called active. Rule as the data show it: active = survival mostly below about 52% (no sharp cut-off); inactive = mostly above about 56%. This is one part of the list.
# System: Wild type
# Test: S. aureus survival, RN4220 and DeltatarO strains – OD600, teichoic acid synthesis inhibitors, primary screen (AID 463173)
# Conditions: S. aureus RN4220 wild type/DeltatarO growth, OD600, 18 h, stronger effect = lower value, screened at 18.75 µg/mL (by protocol)
row,SMILES,survival
1,O=C(CSc1nnc2ccc3ccccc3n12)Nc1ccccc1Cl,inactive: 72%
2,Cc1ccc(NS(=O)(=O)c2ccc(-n3cccn3)cc2)cc1Cl,inactive: 72%
3,O=C(Cc1ccc(F)cc1)NCc1ccc2c(c1)CCN2C(=O)c1ccc(F)cc1,inactive: 76%
4,COC(=O)c1cc2oc3ccccc3c2n1CC(=O)Nc1ccc(Cl)cc1F,inactive: 125%
5,COc1cccc(-n2c(SCC(=O)Nc3c(C)cc(C)cc3C)nc3c([nH]c4ccccc43)c2=O)c1,inactive: 69%
6,Cc1ccc(C(c2nnnn2CS(=O)(=O)c2ccc(C)cc2)N2CCCC2)cc1 (stereo not drawn),inactive: 101%
7,COc1cccc2c1cc1c(=O)n(CC(=O)NCc3ccc(C)o3)nc(C)n12,inactive: 82%
8,O=C(Nc1ccccc1)N(C1=NCCCCS1)c1ccccc1,inactive: 112%
9,O=C(COc1ccc(Cl)cc1)Nc1ccc2nc(SCC(=O)N3CCCC3)sc2c1,inactive: 75%
10,COc1ccc(OC)c(NC(=O)CSc2ccc(-c3sc(C)nc3C)nn2)c1,inactive: 88%
11,CCN(CC)S(=O)(=O)c1ccc(-c2nnc(SCC(=O)O)n2CC)cc1,inactive: 101%
12,COc1ccc(CCNC(=O)c2ccc3c(c2)N(Cc2ccc(F)cc2)C(=O)CS3)cc1OC,inactive: 121%
13,Cc1cccc(-c2nc(CCNC(=O)Cc3ccccc3)cs2)c1,active: -1%
14,CCn1c(=O)cc(SCC(=O)NCc2ccc(OC)cc2OC)c2ccccc21,inactive: 71%
15,Cc1nn(C(=O)c2cccc(Cl)c2)c(C)c1S(=O)(=O)N1CCOCC1,inactive: 99%
16,COc1ccc(CCNC(=O)C(=O)NCC(c2ccco2)S(=O)(=O)c2cccs2)cc1OC (stereo not drawn),inactive: 85%
17,CCC(=O)N1CCc2cc(S(=O)(=O)NC(CC(C)C)C(=O)NCCc3ccccc3)ccc21 (stereo not drawn),inactive: 127%
18,O=C(COc1ccccc1-c1nc(-c2ccccc2)no1)Nc1cccc([N+](=O)[O-])c1,inactive: 83%
19,O=C(c1nc(-c2ccc(Cl)cc2)n2c1CCCCC2)N1CCN(c2ccccc2)CC1,inactive: 69%
20,CCOC(=O)c1c(-c2ccccc2)oc2ccc(N(C(C)=O)S(=O)(=O)c3ccc(CC)cc3)cc12,inactive: 83%
21,CCOc1ccccc1C(=O)NC1CCN(Cc2nnnn2C2CCCC2)CC1,inactive: 121%
22,CC(=O)N1CCc2nc3sc(C(=O)Nc4ccc(Cl)cc4F)c(N)c3c(C(F)(F)F)c2C1,inactive: 107%

row,SMILES,survival
1,CCOc1ccccc1NC(=O)Cn1c(=O)ccc2cc(S(=O)(=O)N3CCCC3)ccc21,active: -3%
2,CC(Oc1ccccc1)C(=O)Nc1nnc2n1CCS2 (stereo not drawn),inactive: 83%
3,COc1cc(-c2nc3nc(C)cc(C)n3c2Nc2ccc(Cl)cc2)ccc1O,inactive: 82%
4,COc1ccc(Cn2c(C(=O)O)c(CNCc3ccc(C)o3)c3ccc(C)cc32)cc1,inactive: 63%
5,CCOC(=O)Nc1ccc2c(c1)Nc1ccccc1S2,inactive: 124%
6,O=C(c1cc2ccc3cccnc3c2[nH]1)N1CCN(c2ccccc2)CC1,inactive: 59%
7,COc1ccc2[nH]c(=O)c(CN(Cc3cccs3)S(=O)(=O)c3cccc4nsnc34)cc2c1,inactive: 112%
8,COc1ccc(C(=O)Nc2ccc(-c3nnc4n3CCCCC4)cc2)cc1OC,inactive: 65%
9,CCOC(=O)c1ccc2ncc3c(-c4ccccc4)nn(-c4ccc(F)c(Cl)c4)c3c2c1,inactive: 108%
10,CC(C)c1nc2ccc(C(=O)NC(C)c3ccccc3)cc2o1 (stereo not drawn),inactive: 121%
11,Cc1cccc(NC(=O)N2CCCC2C(=O)Nc2ccccc2)c1 (stereo not drawn),inactive: 101%
12,O=C(NC1CCCC1)c1ccc(CSc2nc3cccnc3n2Cc2ccc(F)cc2)cc1,inactive: 45%
13,CCc1ccccc1N1CC(c2nc3ccccc3n2CCCCOc2ccccc2)CC1=O (stereo not drawn),active: 19%
14,COc1cccc(/C=C/C(=O)Nc2ccc3nc(N4CCN(C)CC4)cc(C)c3c2)c1OC,inactive: 53%
15,CC(=O)c1ccc(N2CCN(S(=O)(=O)c3ccc4c(c3)C(C)(C)C(=O)N4)CC2)cc1,inactive: 75%
16,CCCn1c2ccccc2c2cnn(CC(=O)N(CCCOC)Cc3ccco3)c(=O)c21,inactive: 85%
17,Oc1ccccc1-c1nc(/C=C/c2ccc(F)cc2)nn1-c1ccccc1,inactive: 34%
18,CCOc1ccc(NC(=O)CSc2ncc3c(n2)-c2ccccc2N(Cc2ccccc2C)S3(=O)=O)cc1,inactive: 63%
19,CCOc1ccc(OCC)c(S(=O)(=O)n2cnc3cc(C)c(C)cc32)c1,inactive: 110%
20,COc1ccc(-c2nc(SCCOc3ccccc3Cl)n3[nH]c(=O)cc3n2)cc1,inactive: 73%
21,COc1cc(NC(=O)CSc2ncccc2C(=O)OC(C)C)cc(OC)c1,inactive: 83%
22,COc1ccc(CCNC(=O)CS(=O)Cc2nc(-c3ccccc3F)oc2C)cc1OC (stereo not drawn),inactive: 83%

row,SMILES,survival
1,Cc1cc(C(=O)NCc2ccccc2Cl)c2c(C)nn(-c3ccccc3)c2n1,inactive: 72%
2,CCN1C(C(=O)c2ccccc2)=C(OC(=O)c2ccccc2OC)c2ccccc2S1(=O)=O,inactive: 81%
3,CC(=O)c1cc2c(cc1N/C(=N/S(=O)(=O)c1ccc(C)cc1)c1ccc(F)cc1)OCO2,inactive: 82%
4,Cc1cc(NC(=O)CNCC2CCCCC2)no1,inactive: 104%
5,CCOc1ccc(-c2nc(CSCC(=O)NCc3ccc(Cl)cc3)c(C)o2)cc1,inactive: 87%
6,CCN(CC)CCNC(=O)c1ccc2c(=O)n3nc(Nc4ccccc4OC)sc3nc2c1,inactive: 146%
7,O=S1(=O)c2ccccc2N(Cc2cccc(Cl)c2)c2ccccc21,active: -2%
8,COc1cccc(CNC(=O)C2CCN(c3nnc(-n4c(C)ccc4C)s3)CC2)c1OC,inactive: 127%
9,CC(C)CCNC(=O)CN1C(=O)CSc2ccc(S(=O)(=O)N3CCCCC3)cc21,inactive: 66%
10,Cc1c(C(=O)N2CCN(c3ccccc3)CC2)sc2nc3n(c(=O)c12)CCC3,inactive: 97%
11,CCc1ccc(S(=O)(=O)c2nnn3c2nc(NC(C)C)c2sccc23)cc1,inactive: 84%
12,COc1ccc(CCNC(=O)c2ccc3c(c2)ncn3-c2ccc(C)cc2C)cc1OC,inactive: 121%
13,CC(C)CC(c1nnnn1C1CCCC1)N1CCC(C(N)=O)CC1 (stereo not drawn),inactive: 104%
14,CCOC(=O)c1c(-c2ccc(C)cc2)csc1NC(=O)c1nc(SC(C)C)ncc1Cl,inactive: 85%
15,CCc1ccccc1NC(=O)C1CCCN(C(=O)c2cnn(-c3ccccc3)c2-n2cccc2)C1 (stereo not drawn),inactive: 71%
16,Cc1ccc(NC(=O)c2ccc(-n3c(C)nnc3C)cc2)cc1F,inactive: 131%
17,CCC(C(=O)NCCc1ccccc1)n1nc(C)n2c(cc3sccc32)c1=O (stereo not drawn),inactive: 78%
18,COc1ccc(S(=O)(=O)N2CCN(Cc3nc4ccc(C)cc4o3)CC2)cc1Cl,inactive: 127%
19,CCCc1nc(SCc2cc(=O)c3ccc(C)c(C)c3[nH]2)n[nH]1,inactive: 136%
20,CCc1cc2c(cc3c(=O)n(CC(=O)NC4CCC(C)CC4)ncn32)s1 (stereo not drawn),inactive: 82%
21,CCOc1ccccc1NC(=O)c1c(NC(=O)c2cccc(C)c2)sc2c1CCC2,inactive: 74%
22,COc1cc(OC)c(NS(=O)(=O)c2ccc3c(c2)CCCN3C(C)=O)cc1Cl,inactive: 77%

row,SMILES,survival
1,CCOc1ccc(N2CC(NC(=O)c3ccc(S(=O)(=O)N4CCCCC4)cc3)CC2=O)cc1 (stereo not drawn),inactive: 71%
2,Cc1ccc(NC(=O)CSc2nc3ccccc3nc2N2CCOCC2)cc1,inactive: 59%
3,COc1cc2nc(NCc3ccc(C)cc3)n3nc(-c4ccccc4)nc3c2cc1OC,inactive: 77%
4,CC1CCc2c(sc(NC(=O)C3c4ccccc4Oc4ccccc43)c2C(=O)OC(C)C)C1 (stereo not drawn),inactive: 61%
5,CCOC(=O)c1scc(-c2ccccc2)c1S(=O)(=O)Nc1cc(Cl)c(OC)cc1OC,inactive: 79%
6,COc1ccc(Nc2nc(N)c3cc(OC)c(OC)cc3n2)cc1,inactive: 86%
7,O=C(Cc1ccccc1)NCCc1csc2nc(-c3ccc(Cl)cc3)nn12,inactive: 74%
8,NS(=O)(=O)c1ccc(NC(=S)NC(=O)c2cccnc2)cc1,inactive: 107%
9,COc1cccc(CNC(=O)c2nn(-c3ccc(C)cc3)c(=O)c3c2c2ccccc2n3C)c1,inactive: 137%
10,COC(=O)c1ccc(CSc2nc3c([nH]c4ccccc43)c(=O)n2-c2ccc(OC)cc2)o1,inactive: 82%
11,CCOC(=O)c1oc2ccc(S(=O)(=O)n3nc(-c4ccc(Br)cc4)cc3N)cc2c1C,inactive: 81%
12,COc1ccc(CNC(=O)c2c3c(nc4ccccc24)C(=O)N(C2CCCCC2)C3)cc1,inactive: 88%
13,Cc1ccc(-n2nc(C)c3c(C(=O)NCc4ccccc4)cc(C4CC4)nc32)cc1,inactive: 82%
14,COc1ccccc1CNS(=O)(=O)c1ccc2c(c1)NC(=O)CC(=O)N2,inactive: 85%
15,COc1ccccc1Nc1nn2c(=O)c3ccc(C(=O)N4CCCC(C)C4)cc3nc2s1 (stereo not drawn),inactive: 68%
16,COc1ccc(C2CC(=O)N(Cc3cccc(F)c3)c3ccccc3S2)cc1 (stereo not drawn),active: 9%
17,Cc1ccc(S(=O)(=O)NCc2nc(-c3cccc(C)c3)no2)cc1,inactive: 106%
18,CCOC(=O)c1sc(NC(=O)C2c3ccccc3Oc3ccccc32)c(C(=O)OCC)c1C,inactive: 121%
19,CCn1cc(C(=O)NCc2ccccc2Cl)c(=O)c2cc(S(=O)(=O)N3CCc4ccccc4C3)ccc21,inactive: 81%
20,CCCC(=O)Nc1cc(C)c(NC(=O)C23CC4CC(CC(C4)C2)C3)cn1,inactive: 90%
21,COc1ccccc1CNC(=O)CCCn1c(=O)c2ccccc2n(CC(=O)Nc2c(C)cc(C)cc2C)c1=O,inactive: 150%
22,COCCCNC(=O)c1ccc2c(c1)N(Cc1ccccc1)C(=O)c1ccccc1S2,inactive: 75%
